According to paper PMC12750741:
These are yes or no findings as the source states them, for the method shown. Binding seen in cells or lysates may run through a third protein. Some entries that bind do so weakly or less than the wild type. For part of these data: Tags and fused reporters may be left off the sequences shown.

By UniProt entry, the sequences of proteins in these tests, tags left out. Where a name states a change or a piece, a line headed by the entry shows the natural chain unless it says otherwise.
UniProt Q93008: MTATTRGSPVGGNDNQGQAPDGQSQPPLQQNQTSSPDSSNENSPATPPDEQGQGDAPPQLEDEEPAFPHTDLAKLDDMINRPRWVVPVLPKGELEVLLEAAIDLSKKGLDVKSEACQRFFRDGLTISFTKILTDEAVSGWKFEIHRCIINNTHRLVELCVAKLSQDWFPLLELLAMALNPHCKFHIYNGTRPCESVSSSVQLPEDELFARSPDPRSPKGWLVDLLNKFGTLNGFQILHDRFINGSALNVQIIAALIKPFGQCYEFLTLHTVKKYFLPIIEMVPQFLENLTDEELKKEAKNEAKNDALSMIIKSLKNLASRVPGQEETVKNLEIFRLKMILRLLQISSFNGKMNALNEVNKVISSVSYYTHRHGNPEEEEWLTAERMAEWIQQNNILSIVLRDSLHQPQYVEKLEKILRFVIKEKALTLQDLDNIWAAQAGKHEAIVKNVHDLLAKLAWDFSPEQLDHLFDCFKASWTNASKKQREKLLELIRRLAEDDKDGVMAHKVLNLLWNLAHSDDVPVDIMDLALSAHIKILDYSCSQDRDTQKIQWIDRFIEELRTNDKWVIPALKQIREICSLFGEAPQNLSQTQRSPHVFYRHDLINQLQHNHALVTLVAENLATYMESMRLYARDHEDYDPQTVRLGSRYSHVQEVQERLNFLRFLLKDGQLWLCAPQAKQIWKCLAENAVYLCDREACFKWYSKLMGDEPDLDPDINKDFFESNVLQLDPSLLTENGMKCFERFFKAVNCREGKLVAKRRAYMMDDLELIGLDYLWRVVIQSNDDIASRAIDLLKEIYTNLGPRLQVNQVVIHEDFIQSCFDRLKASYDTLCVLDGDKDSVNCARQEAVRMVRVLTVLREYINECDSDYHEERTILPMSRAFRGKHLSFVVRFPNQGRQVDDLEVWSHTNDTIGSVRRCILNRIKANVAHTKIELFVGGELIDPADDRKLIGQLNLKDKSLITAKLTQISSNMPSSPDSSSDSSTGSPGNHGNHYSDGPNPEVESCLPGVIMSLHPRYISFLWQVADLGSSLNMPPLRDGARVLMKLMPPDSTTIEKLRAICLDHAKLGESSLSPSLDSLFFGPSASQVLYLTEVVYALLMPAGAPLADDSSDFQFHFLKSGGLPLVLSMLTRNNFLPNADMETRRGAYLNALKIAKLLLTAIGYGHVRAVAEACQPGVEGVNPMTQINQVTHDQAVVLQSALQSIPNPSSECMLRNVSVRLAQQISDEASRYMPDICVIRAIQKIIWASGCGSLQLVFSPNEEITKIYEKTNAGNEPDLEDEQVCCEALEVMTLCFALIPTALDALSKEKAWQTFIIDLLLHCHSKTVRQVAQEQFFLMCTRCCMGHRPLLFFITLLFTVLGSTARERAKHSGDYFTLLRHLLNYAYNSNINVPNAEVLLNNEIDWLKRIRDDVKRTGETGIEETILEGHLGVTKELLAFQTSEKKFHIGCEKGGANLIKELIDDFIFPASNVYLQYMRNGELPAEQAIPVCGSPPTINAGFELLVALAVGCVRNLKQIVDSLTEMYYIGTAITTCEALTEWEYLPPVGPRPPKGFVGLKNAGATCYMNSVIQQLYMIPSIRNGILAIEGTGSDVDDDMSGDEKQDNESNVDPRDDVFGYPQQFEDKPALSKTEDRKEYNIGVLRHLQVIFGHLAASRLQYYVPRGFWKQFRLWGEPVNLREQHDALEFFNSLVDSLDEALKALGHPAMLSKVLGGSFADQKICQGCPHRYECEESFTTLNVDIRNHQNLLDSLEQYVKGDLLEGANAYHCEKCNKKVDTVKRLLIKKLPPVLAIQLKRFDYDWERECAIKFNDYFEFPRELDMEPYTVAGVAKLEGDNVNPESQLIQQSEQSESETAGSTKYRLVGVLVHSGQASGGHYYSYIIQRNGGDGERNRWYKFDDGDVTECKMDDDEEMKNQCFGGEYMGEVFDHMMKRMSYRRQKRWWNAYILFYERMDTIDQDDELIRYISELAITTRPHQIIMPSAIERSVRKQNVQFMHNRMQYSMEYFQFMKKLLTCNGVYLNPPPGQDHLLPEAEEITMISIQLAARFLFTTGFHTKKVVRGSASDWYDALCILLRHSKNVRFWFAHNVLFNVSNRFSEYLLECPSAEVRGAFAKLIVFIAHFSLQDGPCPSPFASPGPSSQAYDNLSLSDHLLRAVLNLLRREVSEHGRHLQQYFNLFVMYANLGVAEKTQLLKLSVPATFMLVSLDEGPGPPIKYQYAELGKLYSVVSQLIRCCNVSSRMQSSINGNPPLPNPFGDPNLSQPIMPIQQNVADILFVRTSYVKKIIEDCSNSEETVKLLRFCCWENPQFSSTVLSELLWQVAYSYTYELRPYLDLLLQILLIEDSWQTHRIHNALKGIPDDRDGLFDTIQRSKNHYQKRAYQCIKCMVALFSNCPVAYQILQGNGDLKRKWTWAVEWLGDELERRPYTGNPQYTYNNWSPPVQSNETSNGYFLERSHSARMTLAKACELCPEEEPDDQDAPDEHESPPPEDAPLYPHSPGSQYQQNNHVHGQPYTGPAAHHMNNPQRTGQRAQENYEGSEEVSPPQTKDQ
UniProt P61586: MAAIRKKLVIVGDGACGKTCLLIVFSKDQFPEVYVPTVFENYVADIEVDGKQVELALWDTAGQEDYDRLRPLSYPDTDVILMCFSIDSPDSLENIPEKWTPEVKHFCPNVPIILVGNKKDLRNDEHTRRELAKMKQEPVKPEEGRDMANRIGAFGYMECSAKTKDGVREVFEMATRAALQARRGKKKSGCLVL

Experiments:
USP33 (human) = biological target: T1, USP33 (human) (UniProt Q8TEY7); experiment: co-IP; lysates of HEK293T cells expressing WT-RHOA and/or USP9X (USP33 as comparison); Flag-M2 agarose; 0.3% Nonidet P40 buffer (50 mM Tris-HCl, 150 mM NaCl, pH 7.5); Western blot
T1 sequence: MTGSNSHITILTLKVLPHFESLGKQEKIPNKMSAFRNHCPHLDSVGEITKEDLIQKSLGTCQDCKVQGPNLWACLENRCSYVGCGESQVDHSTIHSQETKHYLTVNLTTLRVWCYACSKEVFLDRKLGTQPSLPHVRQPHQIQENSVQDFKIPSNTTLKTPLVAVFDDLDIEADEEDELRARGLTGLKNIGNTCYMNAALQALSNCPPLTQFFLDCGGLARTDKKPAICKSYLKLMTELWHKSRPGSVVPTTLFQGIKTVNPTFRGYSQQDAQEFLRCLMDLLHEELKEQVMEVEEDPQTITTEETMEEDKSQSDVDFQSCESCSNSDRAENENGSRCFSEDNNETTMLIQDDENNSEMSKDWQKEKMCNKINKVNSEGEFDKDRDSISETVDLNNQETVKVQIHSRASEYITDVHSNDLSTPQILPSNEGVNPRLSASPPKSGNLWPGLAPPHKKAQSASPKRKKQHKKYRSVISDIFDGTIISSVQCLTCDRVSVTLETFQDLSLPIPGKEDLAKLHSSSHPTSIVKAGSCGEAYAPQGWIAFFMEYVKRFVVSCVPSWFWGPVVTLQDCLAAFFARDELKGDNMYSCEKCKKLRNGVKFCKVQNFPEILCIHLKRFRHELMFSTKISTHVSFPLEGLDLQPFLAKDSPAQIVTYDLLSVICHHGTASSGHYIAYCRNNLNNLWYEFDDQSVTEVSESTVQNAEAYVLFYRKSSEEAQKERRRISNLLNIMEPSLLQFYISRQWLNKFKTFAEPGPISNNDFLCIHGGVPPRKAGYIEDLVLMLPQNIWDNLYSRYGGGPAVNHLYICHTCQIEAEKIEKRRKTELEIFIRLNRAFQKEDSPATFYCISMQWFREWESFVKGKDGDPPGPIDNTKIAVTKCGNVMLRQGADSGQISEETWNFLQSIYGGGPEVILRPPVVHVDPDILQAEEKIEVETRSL

[1] = biological target: Ubiquitin carboxyl-terminal hydrolase 9X (USP9X) (human) (UniProt Q93008); experiment: as above
[2] = biological target: RHOA K118 lactylated (site-specific lactylation system, Flag-RHOA K118TAG) (human) (UniProt P61586); experiment: co-IP; ROCK2-RBD-HA co-expressed with WT, lactylated or mutant RHOA in HEK293T; lysis in Mg2+ lysis/wash buffer; RHOA precipitated with Flag-M2 agarose; bound RBD detected by immunoblotting
[3] = biological target: RHOA K162 lactylated (site-specific lactylation system, Flag-RHOA K162TAG) (human) (UniProt P61586); experiment: co-IP; lysates of HEK293T cells expressing WT-RHOA, K162La or K162R and/or KCTD13; Flag-M2 agarose, 3 h at 4 C; 0.3% Nonidet P40 buffer (50 mM Tris-HCl, 150 mM NaCl, pH 7.5); Western blot
[4] = biological target: Flag-RHOA (wild type) (human) (UniProt P61586); experiment: as above
[5] = biological target: RHOA K162R mutant (human) (UniProt P61586); experiment: as above

“WT-RHOA (co-expressed with USP9X or USP33) (from UniProt P61586 1-193)” was tested, and the binding (USP33 (human)) was “no binding” and the binding [1] was “binds”.

B1: ROCK2-RBD-HA (RHOA-binding domain of human ROCK2, amino acids 979 to 1047, fused to HA-tag) (domain or fragment, UniProt O75116 979-1047)
chain: TSDVANLANEKEELNNKLKDVQEQLSRLKDEEISAAAIKAQFEKQLLTERTLKTQAVNKLAEIMNRKEP
In the case of B1, the binding [2] is reported as “binds”.

B2: BTB/POZ domain-containing protein (KCTD13) (protein, UniProt Q8WZ19 1-329)
chain: MSAEASGPAAAAAPSLEAPKPSGLEPGPAAYGLKPLTPNSKYVKLNVGGSLHYTTLRTLTGQDTMLKAMFSGRVEVLTDAGGWVLIDRSGRHFGTILNYLRDGSVPLPESTRELGELLGEARYYLVQGLIEDCQLALQQKRETLSPLCLIPMVTSPREEQQLLASTSKPVVKLLHNRSNNKYSYTSTSDDNLLKNIELFDKLALRFHGRLLFLKDVLGDEICCWSFYGQGRKIAEVCCTSIVYATEKKQTKVEFPEARIFEETLNILIYETPRGPDPALLEATGGAAGAGGAGRGEDEENREHRVRRIHVRRHITHDERPHGQQIVFKD
B2 was tested, and the binding [3] was “binds”, the binding [4] was “binds” and the binding [5] was “binds”.
